Data as given in the supplement of paper PMC11417369.
The other results are listed elsewhere or left out.

Tested on: PfSIP2 AP2 domain 1 (GST-tagged)
Assay: gcPBM binding intensity (ln(normalized median fluorescence intensity)); higher = stronger DNA binding
Procedure, shortened: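 Alexa488 anti-GST antibody, scanned at 488 nm, detected GST-tagged P. falciparum DNA-binding domains that had been expressed in E. coli and incubated for 1 h on an Agilent 4 × 180k array. The array carried primer-extended double-stranded 36-bp intergenic genomic probes and negative controls. Binding intensity is the highest Masliner-normalised natural-log median intensity across replicate spots of either orientation of each probe.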

Sequence | gcPBM binding intensity (ln)
TTTAAAAAATAATATTGTACTATTCTCCCAATTTCT [XGTACX_site7079] | 6.57
TTTTTATATAATTTAACACACATTTCATATAAAAAA [CACACA_site3103] | 7.11
ATGTGAAAATAAGACACACTCAAAAGGTTTATATTA [CACACA_site4595] | 6.84
ATATACTGTATGAAAGCACACATACTTATTACTAAC [CACACA_site9384] | 7.04
AAAAAATGAAAAAACTGTACGCAATTTTGTTTTTAT [XGTACX_site2299] | 7.55
AAGTTTTTTTTTATCACACACAAAAAAAAAAATATA [CACACA_site1362] | 7.11
AAAAAAAAAAAAAAGTGTACCTTCAAAATAATATTG [XGTACX_site2844] | 7.09
ATAAATATAAAACACACACACATATTATATATATAT [CACACA_site3064] | 9.06
TCTTTCCTTATTAAAACACACAAATACATTATTTAA [CACACA_site2147] | 7.13
CCTTTTTCTACTTTCTCACACATATTAAGAATTATA [CACACA_site5621] | 7.52
CACAAATATATACATACACACATATATACACATATA [CACACA_site8024] | 7.19
AAAACGCAGTTTAATATACACACCAAAAAAAAAAAA [CACACA_site3036] | 6.91
TTTGAGATGTGGTGTACACAAAATTAGGTACACATC [CACACA_site5773] | 7.38
TGTTTTTAAAAATATACACACACAGATATTATATAT [CACACA_site8162] | 7.12
TTTTATATTTATTTTTGTACATAAATGATCTCAAAT [XGTACX_site7768] | 6.84
TAAAATATGTCATGGGTGCTTCTTTTTATACCTATG [GTGCAC_site9888] | 7.85
AAAAAAAAAAAATTATGTACATATTATATATAATGG [XGTACX_site2885] | 6.92
AAATATTATAATAATTGTACTATATATACAGTTATT [XGTACX_site1963] | 6.93
ATATATATATATTTATGTACGCATTTATAGACGTAG [XGTACX_site6031] | 8.83
TATGATAACCATAATTGTACAGAATGAAACGTAAAT [XGTACX_site1653] | 7.26
AGAAAAAAAAAAAAAAATAAAAAAATAAATAAATAA [GTGCAC_negctrl_site161] | 6.7
ACTTAAATAATACATACACACATGTACTTACAGAAA [CACACA_site8458] | 7.32
AAAAAAAAAAAAAACACATGCAGAAGAAAAAAAATA [TGCATGCA_site545] | 7.22

Sequence | gcPBM binding intensity (ln)
AATTGTTTTTTTTTCTTATTTTATGTTATACACACA [TGCATGCA_negctrl_site380] | 6.94
AAATGAACATATATGTGTACTTATATTTTTCTAAAT [XGTACX_site3388] | 7.1
ATATATTTTTCTTTACGTACGAAGCAAAATAACATT [XGTACX_site8145] | 7.05
AAAAAAAAAAAAAAAGTGCATATATAAATATTGTAT [GTGCAC_site9459] | 9.58
TCATTAAATGTTTAGGTGCATACTTTAATTTTTAAT [GTGCAC_site9906] | 9.99
TATTAATTTCGGGAAGTGCATTATGTTTATAGAATA | 8.44
ATTATATAAGTACACAAACAAGTATGAGATTCAAAA [GTGCAC_negctrl_site119] | 7.17
TGTTTTAAACTAATTTGTACATAGTTATTTATATTT [XGTACX_site7196] | 6.8
CCATATATTTGGTATAGTACTTTTTATTTTATTTCA [XGTACX_site8933] | 6.96
CATATACATTGTATATGTACATATATATATATATAT [XGTACX_site3772] | 9.32
GATTATATATTAAAAAGTACTTTATAAATACTTCTA [XGTACX_site8992] | 7.05
TGATGCAAAATATATACACACATATATATATATATA [CACACA_site3052] | 9.36
TATGGGTTTATATAGGTGCAATATATGTATATATAA | 10.2
TATACCACCCGATATACACACTTGTAGACATCTTTT [CACACA_site4268] | 6.93
ACAAAACTCTTTAATTGTACAAATATAATATAAAAA [XGTACX_site5690] | 7.05
TATATAGTTTATATTTGTACATATAGACATTTATAA [XGTACX_site6414] | 6.9
AGCAATATTTATTAAAGTACGTAAAAAAAATTCTCA [XGTACX_site6550] | 7.16
CAAAGCATAGTATGATGTACAAATGTTCCTATAATA [XGTACX_site8642] | 6.96
TCTTATTATAAAAGGAGTACATCAATTAGATGTTCC [XGTACX_site8465] | 6.76
ATATATATATAATATTGTACATAGTAGACATCACAC [XGTACX_site4649] | 8.87
TATATATGTATAAGAGTGCATATGCATATATGTATA [GTGCAC_site9692] | 9.54
TAAAATATGGAAATCACACATTTATTAAAATATATA [CACACA_site4623] | 6.59
TTATGTTTATACACTACACACATTATTCATAAAAAA [CACACA_site4637] | 7.22

Sequence | gcPBM binding intensity (ln)
CATCTTAAATAAGAACGTACATTTTTTTTGATGAGA [XGTACX_site3462] | 6.79
AAGACAAAACAAAGAAGTACATATATATATATATAT [XGTACX_site4067] | 9.37
GGAGACTTTGTACAAACACACACATGAACACAATAT [CACACA_site8376] | 7.28
TAATTTAAAAATGAACATATATATGTATGTAAATAT [TGCATGCA_negctrl_site135] | 7.28
ATGTATATATTTATGTGTACTTAAATTTTTTTTTGT [XGTACX_site8179] | 7.25
TTTTAATATATAGAGTAACAAATTTGTCTATTAATA [CACACA_negctrl_site1495] | 6.76
TCTTCACCACGTGGAAGTACATAAAAAGATACACAA [XGTACX_site4747] | 7.23
AATAATATTAACACACGTACAAAAGCAAACAACCAA [XGTACX_site7410] | 7.38
ATACATTCTAATACGTGTACATATATATATATATAT [XGTACX_site1881] | 9.29
ATAAAACAAAAACACACACACATACACAAAAAAAAA [CACACA_site3848] | 7.05
TTTATATTATTATATCTTATTAATTATTTATCATTT [TGCATGCA_negctrl_site73] | 6.86
ATATTAAAATACAGTGCATGTTAAAAATATATTATA [TGCATGCA_site977] | 9.88
TTATAACATCTTAAATGTACAAATATGTGCTTATTT [XGTACX_site7285] | 6.85
ATGTATTTATATACTTGTACGTAAGATGTATTATAT [XGTACX_site908] | 7.26
TAAAAAAAAAACATCTGTACCAATTTTTATGTATAA [XGTACX_site5196] | 6.75
AATAAAAGTTCACCTGTACACACATATATATATGTA [CACACA_site8500] | 7.17
ATTGGAAAATATGTTATATATATATATATATATATG [CACACA_negctrl_site116] | 7.82
TTAATTCGTACATACACACGCACATATATATATATA [CACACA_site1469] | 9.36
AATAATAATAGAAACACACACACATCTTTAATAATA [CACACA_site4805] | 6.87
ATATTTTTTTTCTACACACATACAAATATATATTAT [CACACA_site2359] | 7.44
ACATGCAACCATTCGGGTACAGAAATAAATATATAC [XGTACX_site4174] | 7.18
CTTTTTCGCATGAAAAGTACATGAAATATATTACAT [XGTACX_site8971] | 6.86
AATAACTTTTTAAACACACACACATATAAATAAATA [CACACA_site6196] | 7.23

Sequence | gcPBM binding intensity (ln)
GGTTATAACGCACATGCACACGTAAATAAATATTAT [CACACA_site9277] | 7.74
TAAATTTTAATAAATACACACAAATTTTAATTCTAT [CACACA_site6039] | 6.66
TATTGTATATAATAAACACACAATATTAAAAATATA [CACACA_site1057] | 6.8
TATTTAAAAAACACATGTACGAGTATTATATATAAA [XGTACX_site6654] | 7.02
TAATATACTTAATACACACACGAATATTTATAAATA [CACACA_site6675] | 7.03
GATTCATCTAAACACCGTACATATTATATATATATA [XGTACX_site6030] | 9.22
CCCCTCGAAATAATTTGTACGAATATATTGTCTGTA [XGTACX_site8308] | 7.62
AAACTCAACTTATATACACACAATCTTTTTTTTTTA [CACACA_site29] | 6.8
AGTATATTAAAAAATACACACGTATTATATCTACAT [CACACA_site8844] | 6.95
GTTCATAAATTAAACACACACACACCGCTGGATACC [CACACA_site5779] | 7.3
GAAACATACATTTTTTGTCCGTAAGTATTATAATAA [XGTACX_site3273] | 6.94
ATACATCAAGGACACACACACACACCCACACCCACA [CACACA_site8013] | 7.16
ATTTTGCCTGACCCATGTACATATTATTTTTTGCAT [XGTACX_site2258] | 7.51
CTATGAATAGGAAAAAGTACTAAACCTTTATATATA [XGTACX_site5022] | 7.04
CACATAAAAATTGTGTTGCACTTTTATTCTTATATC | 8.31
AGTAGAATATCCCCTACACACCCAAATAATTTACAA [CACACA_site8339] | 6.96
TTTATATATTTTAGGTGTACATAAATTTTTATATAT [XGTACX_site5597] | 7.2
AACTTACTTGGACATACACACATATATATATATATA [CACACA_site2978] | 9.54
TAACTTAATATTAATGCACACAATTTATATATATAT [CACACA_site3903] | 8.99
TCAAATATTCATAAATGTACATTTATTTTTCTCCTT [XGTACX_site5827] | 6.74
